± gives the standard deviation of the averaged measurements. Some of the results follow.
tested on: PfAP2-G AP2 domain (GST-tagged); assay: gcPBM binding intensity (ln(normalized median fluorescence intensity)); higher = stronger DNA binding
Procedure, shortened: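 Binding of GST-tagged P. falciparum DNA-binding domains, expressed in E. coli and used at about 25 μg on average, was carried out for 1 h in 1× PBS containing 1% milk, 0.2 mg/ml BSA, 0.5% salmon testes DNA and 0.03% Triton X-100. The target was an Agilent 4 × 180k array of primer-extended double-stranded 36-bp intergenic genomic probes plus negative controls, read with Alexa488 anti-GST antibody at 488 nm. Binding intensity is the highest Masliner-normalised natural-log median intensity across replicate spots of either probe orientation.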

Row | Sequence | gcPBM binding intensity (ln)
1 | GTTATAAATAAATACACACATACAAAAATATGACGT [CACACA_site1154] | 10.11 ± 0.071
2 | TCACATACATGAAAATGTACTTTTATAATTCCATAA [XGTACX_site1836] | 11.1 ± 0.74
3 | ATAAATACACACAAGTGTACATACTTCTATAAATAT [XGTACX_site1845] | 11.3 ± 0.96
4 | TTTTTTTTTTTTGGATGTACTTAATGAAAATGTTAC [XGTACX_site8980] | 11.1 ± 0.94
5 | TAAGCACAAGCACAAGCACACATTTATATATATATA [CACACA_site883] | 10 ± 0.28
6 | ATTTTATTTTTTCACACACACATATATATATATATA [CACACA_site3334] | 10.2 ± 0.3
7 | CCCAGGAATATAAAATGTACATAAAAAATACAAATT [XGTACX_site1708] | 11.2 ± 0.67
8 | AGTACATTATAGAATACACACCTATACATTTATATA [CACACA_site6391] | 10.1 ± 0.028
9 | TCTTTGTATATATGTTCATTTGTAATATATATTCAT [TGCATGCA_negctrl_site467] | 9.7 ± 0.15
10 | TATTTGTGAAGAAATTGTACTCATATCTACATTTAT [XGTACX_site2245] | 11.3 ± 0.84
11 | ATAATAATATAAAAATGTACATATATTTATAATTGT [XGTACX_site3429] | 11.1 ± 0.59
12 | ACATAATATTGAAGAAGTACAAATTTTATTTATTAT [XGTACX_site4113] | 11.2 ± 0.73
13 | ACGTTTTTGAGTAGTACACACACAATAAGGATGGAT [CACACA_site9044] | 11.5 ± 0.97
14 | ATGCAAACTAAAAGACGTACAGAAAAGTATCATACT [XGTACX_site8766] | 11.6 ± 0.87
15 | TGATTATTTTATATTTGTACACATATCATATAAAAA [XGTACX_site5868] | 11.5 ± 1
16 | ATGTATGTGTATATATGTACATAATATATATCTTTT [XGTACX_site8666] | 11.2 ± 0.45
17 | AATATAATATATATTAGTACATATATATATATATAT [XGTACX_site870] | 11.1 ± 0.85
18 | CCTCATATTATAGACACACACAAAAAAAATAAAAAA [CACACA_site180] | 10.1 ± 0.33
19 | TCATTATTATATAATTGTACATAATAATTATATCCA [XGTACX_site1801] | 10.9 ± 0.68

Row | Sequence | gcPBM binding intensity (ln)
20 | GGAACCATCCAAAAAAAAAAAAAAAATAATAATAAT [CACACA_negctrl_site383] | 9.515 ± 0.092
21 | ACATGTACAGAAATTTATATATATATATATATATAT [CACACA_negctrl_site1584] | 11.1 ± 0.8
22 | TCTTCATATATAATTGTACACACAAAAACGACATTG [CACACA_site8645] | 11.4 ± 0.94
23 | TATTATAATTAATATACACACGCTTATATATATATA [CACACA_site75] | 10 ± 0.13
24 | TATAAATAAACATTTACACACTCTTATAATAAATAT [CACACA_site1679] | 9.82 ± 0.12
25 | ATTATTATGTATTGCCGTACACATATTATCACAGAA [XGTACX_site3740] | 11.3 ± 0.9
26 | ACTGAAAAAAGAAATACACACATTCTGGATCAGATA [CACACA_site7760] | 9.94 ± 0.057
27 | TCATTCTTGTGTTTATGTACACATATTTATATTGTA [XGTACX_site710] | 11.4 ± 0.88
28 | AACTAATAGTATATTACATGCAAAAGTAAAAGTAAA [TGCATGCA_site411] | 9.945 ± 0.035
29 | CTCACAATACTTACATGTACATATTATATATATAAA [XGTACX_site1880] | 11.4 ± 0.88
30 | GTTGAAATAAAATTAGTGCATATATAAATATATATA | 9.8 ± 0.17
31 | TATATGCAAAATGTCACACATGTGATAAATACATAT [CACACA_site4302] | 10.1 ± 0.11
32 | TTATCATTTTTGGAATGTACTTACATTAAATATTTA [XGTACX_site4034] | 11.1 ± 0.83
33 | ATAATGTATATTATTGCACACATATATAAAATTATG [CACACA_site8280] | 10.2 ± 0.26
34 | TAAATAAATACATACACACACATACCTATATTTATA [CACACA_site7466] | 10 ± 0.13
35 | AATATAAATATAAATATAAATATATATATATATATA [TGCATGCA_negctrl_site603] | 9.89 ± 0.63
36 | TTTTATAAAAACAAAAACAAAGGCACTTTCTAAAGA [XGTACX_negctrl_site130] | 10.3 ± 0.23
37 | TGTATACACATATGTACACACATATAGATGTATATG [CACACA_site7447] | 11.3 ± 0.6
38 | TATGAATTTATCTACAACATTTGAAATAAATTAAAA [CACACA_negctrl_site79] | 9.81 ± 0.12

Row | Sequence | gcPBM binding intensity (ln)
39 | AAAGACAAAAGGAATTGTACATAATATATAAAATAT [XGTACX_site2923] | 10.8 ± 0.54
40 | AATTTTATTTAAAGTGCATGTAAAATTAAAACTTTT [TGCATGCA_site989] | 10 ± 0.057
41 | ATATAAAATATGAGTAGTACATATTTTCTCATCTTA [XGTACX_site8595] | 11.3 ± 0.73
42 | GGGAAACGATTTAATACACACACGTATTATATATAT [CACACA_site1160] | 10.1 ± 0.13
43 | CACAAAAGTAAGCACGCACACACAACATGAAATAAA [CACACA_site7938] | 10.4 ± 0.18
44 | CATTTTTTGTAAAATCGTACATATACATAAAGTGGT [XGTACX_site3423] | 11.3 ± 0.84
45 | TTATAAAAATATTACGCACACACAAACTTATTCATT [CACACA_site1970] | 10.3 ± 0.17
46 | ATATATTTATATTATACACACAAAAATATTTTGTAT [CACACA_site6262] | 9.91 ± 0.099
47 | TATATATATTAATTTATTTATTTGTTTATTTATTTA [CACACA_negctrl_site185] | 9.47 ± 0.014
48 | AATACACACCTGTGGGTGCTTATAATAAGCCACAAA | 10.15 ± 0.099
49 | TATTTTTTTATTTATTGTACTTTAAAAAAAATTAAA [XGTACX_site6167] | 11.3 ± 0.99
50 | TAACAAATATTATTTTGTACATAATATATATATATA [XGTACX_site6898] | 10.6 ± 0.49
51 | AGACTATCATTTTTTTAACACACAAAAAAAATAAAA [CACACA_site9173] | 10.1 ± 0.4
52 | ATCGCATATACATTATATTTTATAATAATTATTTTT [GTGCAC_negctrl_site48] | 9.945 ± 0.021
53 | ATATAATAATATTATACATGCAAAATATGTTCTTCA [TGCATGCA_site115] | 9.795 ± 0.049
54 | AAGAAGAGTTATTGTAGTACATTTTTAAATGTAATA [XGTACX_site7664] | 11.4 ± 0.76
55 | TAATTACCATATGGTACACACATATATATCTGTATA [CACACA_site5849] | 11.1 ± 0.83
56 | AAGAATTATAGAAACACACATACATACAGACATACA [CACACA_site1943] | 10.1 ± 0.26
57 | AAAGATAATAATATGCGTACATAAAAATATATGATA [XGTACX_site6884] | 11.5 ± 0.92
